# In PubChem BioAssay AID686978 (National Center for Advancing Translational Sciences (NCATS), 2013):
# In all, about 420,000 compounds went through this assay and about 64,000 (15%) were called active. The inconclusive results got no clear call from the source; some entries with a clear call stand among them for comparison. Calls come from the whole dose curve; as a rule, active = well fitted inhibition curve with a large enough effect; inconclusive = small, poorly fitted or top-dose-only effect; inactive = flat fitted curve, though single readings scatter. Potencies of inconclusive entries are left out as doubtful fits.
# Test: qHTS for Inhibitors of human tyrosyl-DNA phosphodiesterase 1 (TDP1): qHTS in cells in absence of CPT; note: nearly all actives have a fitted effect of over 55% in size
# Conditions: DT40 Tdp1-/- hTDP1 cells, no CPT, ATP luminescence, 48 h; activity change, negative = growth inhibition: at 46.2 µM (top of the series) unless noted
# Procedure, shortened: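 Chicken DT40 Tdp1-/- cells stably complemented with human TDP1 were seeded at 400 cells/well with DMSO in place of 20 nM camptothecin. After compound pinning, cells grew at least 48 hr at 37 °C; viability read by CellTiter-Glo luminescence.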
# % is set by controls: 0 for no effect and ±100 for the full control effect; potency is the fitted concentration of half-maximal effect; tags give direction and shape of the fitted curve.
Structure (SMILES),Potency,"activity change, negative = growth inhibition"
O=S(=O)(NCc1c(Cl)cccc1Oc1ccccc1)c1ccc(F)cc1,"inconclusive [inhibitor, single point]",–
CCOC(=O)Cc1csc(NC(=O)c2ccc(S(=O)(=O)N3CCOCC3)cc2)n1,"inconclusive [inhibitor, partial curve, poor fit]",–
COc1ccc(-n2nnnc2C2CCN(S(=O)(=O)c3ccc(NC(C)=O)cc3)CC2)cc1,active: 4.61 µM,–
Cc1[nH]nc2c1C(C1CC=CCC1)C(C#N)=C(N)O2 (centres undefined),"inconclusive [inhibitor, partial curve, poor fit]",–
Cn1c(COc2ccccc2)nnc1SCCSc1nnc(COc2ccccc2)n1C,"inconclusive [inhibitor, single point]",–
COc1ccc(NC(=O)CCc2c(C)nn(-c3ccc(N4CCCCC4)nn3)c2C)cc1Cl,"inconclusive [inhibitor, single point]",–
CN1C(=O)C(C)(C)c2cc(S(=O)(=O)N3CCCC3C(=O)NCc3ccccc3Cl)ccc21 (centres undefined),–,inactive: -26.2%
c1coc(CN2CCN(C(c3cccs3)c3nnnn3C3CCCC3)CC2)c1 (centres undefined),"inconclusive [inhibitor, partial curve, poor fit]",–
COc1ccc(CC(=O)NCc2nnc(SCC(=O)Nc3ncc(C)s3)n2C)cc1,active: 16.4 µM,–
Cc1ccc(C(=O)CSc2nnc(C3CC3)n2C2CC2)s1,–,inactive: -23.9%
Cc1ccccc1NC(=O)CSc1nc2ccccc2c2nc(CCn3cncc3C)nn12,inactive,–
CCOC(=O)c1cccc(NC(=O)CN(c2ccc(C)cc2)S(=O)(=O)c2c(C)n[nH]c2C)c1,"inconclusive [inhibitor, single point]",–
CS(=O)(=O)N1CCc2cc(C(=O)Nc3cccc([N+](=O)[O-])c3)ccc21,"inconclusive [inhibitor, single point]",–
Cc1ccc(Cn2ccnc2SCC(=O)NCc2ccccc2Cl)cc1,–,inactive: -15.3%
COC(=O)c1ccc2c(=O)n(CCCCCC(=O)NCCc3ccc(Cl)cc3)c(=O)[nH]c2c1,"inconclusive [inhibitor, single point]",–
O=C(NC(=S)NC(c1ccccc1)c1ccncc1)c1ccccc1 (centres undefined),active: 11.6 µM,–
CCCc1cc(-n2ccnc2C)n2c(nc3ccccc32)c1C#N,–,inactive: -22%
CC1CCN(CCOCCOc2ccccc2-c2ccccc2)CC1,"inconclusive [inhibitor, single point]",–
Cc1ccc(C)c(NC(=O)C(Sc2nnc(-c3cccs3)o2)c2ccccc2)c1 (centres undefined),–,inactive: -0.762%
Cc1oc(-c2ccc(C(=O)NCc3cccc(F)c3)cc2)nc1COc1ccccc1,–,inactive: -29.9%
COCCCNC(=O)c1ccc(-c2nc(CS(=O)(=O)c3ccc(C)cc3)c(C)o2)cc1,active: 16.4 µM,–
Cc1cn(C(=O)c2ccccc2)c(=S)n1-c1ccc(Br)cc1,–,inconclusive: -15.3% [inhibitor]

Structure (SMILES),Potency,"activity change, negative = growth inhibition"
c1csc(-c2cc(N3CCCCC3)c3ccccc3n2)c1,"inconclusive [inhibitor, single point]",–
Cc1nc2nc(-c3ccc(Cl)cc3)[nH]n2c(=O)c1Cc1ccccc1,–,inactive: -28.1%
NC(=O)CC(NC(=O)c1ccc(Br)cc1)c1ccc(NCc2ccc(F)cc2)c([N+](=O)[O-])c1 (centres undefined),"inconclusive [inhibitor, single point]",–
Cc1ccc(S(=O)(=O)N(C)CC(=O)N2CC(C)OC(C)C2)cc1 (centres undefined),–,inactive: 9.6%
Cc1ccc(-c2noc(-c3ccccc3C(=O)NCc3ccco3)n2)cc1,"inconclusive [inhibitor, single point]",–
CCc1nnc(NC(=O)C2c3ccccc3Oc3ccccc32)s1,"inconclusive [inhibitor, partial curve, poor fit]",–
CCNc1ncc2nc(-c3cc(F)cc(F)c3)c(=O)n(-c3ccccc3)c2n1,–,inconclusive: -33.2% [inhibitor]
COc1ccc(CN2C(=O)CN(C3CCCCCC3)C(=O)C2c2ccc(F)cc2)cc1 (centres undefined),–,inconclusive: -32.2% [inhibitor]
Cc1cc(C)cc(CC(=O)N2CCC2(C)C(=O)NS(=O)(=O)c2ccc(C#N)cc2)c1 (centres undefined),–,inactive: -1.91%
COc1ccccc1C(=O)Nc1cccc(C(=O)OCc2cc(=O)n3ccsc3n2)c1,–,inactive: -18.8%
CCCn1nnc(NC(=S)NC(=O)/C=C/c2ccco2)n1,"inconclusive [inhibitor, single point]",–
c1ccc2c(c1)nc(N1CCCCCC1)c1nncn12,"inconclusive [inhibitor, single point]",–
Cc1ccc(-c2ccc(=O)n(CCC(=O)N3CCN(c4cccc(C)c4)C(C)C3)n2)cc1 (centres undefined),"inconclusive [inhibitor, single point]",–
CC1(C)Cc2c(sc(NC(=O)COc3ccc(Cl)cc3Cl)c2C(N)=O)C(C)(C)N1,"inconclusive [inhibitor, single point]",–
CCOc1ccc(/C=C/C(=O)Nc2ccc(OC)cc2[N+](=O)[O-])cc1,"inconclusive [inhibitor, single point]",–
Cc1cccc(NS(=O)(=O)c2ccc3c(c2)CC(C)N3C(=O)C2CCC2)c1C (centres undefined),active: 18.4 µM,–
CCn1c(=O)c(C(=O)NC(C)c2ccccc2)c(O)c2ccccc21 (centres undefined),"inconclusive [inhibitor, single point]",–
O=C(Nc1nnc(SCc2cccnc2)s1)C1CC(=O)N(c2ccccc2)C1 (centres undefined),–,inactive: -0.674%
CC(C)Oc1ccc(-c2nc(-c3cccnc3)no2)cc1,"inconclusive [inhibitor, single point]",–
COCCNc1nnnc2c1sc1nc(N3CCOCC3)c3c(c12)CC(C)(C)OC3,"inconclusive [inhibitor, partial curve]",–
CC(=O)NC(C)(c1ccccc1)c1nc(-c2ccc(N(C)C)cc2)cs1 (centres undefined),active: 23.1 µM,–
CN(Cc1ccccc1)C(=O)COC(=O)c1cc(NS(=O)(=O)c2cccs2)ccc1O,"inconclusive [inhibitor, single point]",–
